System: Rosa26-DT Mlc2v-Cre mice

Cc1ccc(=O)n(-c2ccccc2)c1 [Pirfenidone, 5 methyl-1-phenyl-2-[H] pyridone]
expression of CD86 on cardiac B lymphocytes (0.5% pirfenidone chow, day 4 post-DTR treatment, animals with troponin>10): reduced
Ly6C+ CD64low/− monocytes (DT-injured hearts day 4, Pirfenidone chow vs normal chow, p=0.15): no significant differences
Ly6G+ neutrophils (DT-injured hearts day 4, Pirfenidone chow vs normal chow, p=0.27): no significant differences
number of myocardial CD45+ cells (DT-injured hearts day 4, Pirfenidone chow vs normal chow, p=0.8): no significant differences
Ly6Clow/− CD64+ macrophages (DT-injured hearts day 4, Pirfenidone chow vs normal chow, p=0.9): no significant differences
percentage of MHC-IIlowCCR2low macrophage subset (DT-injured hearts day 4, with vs without Pirfenidone, p=0.11): no significant difference
percentage of MHC-IIlowCCR2high macrophage subset (DT-injured hearts day 4, with vs without Pirfenidone, p=0.21): no significant difference
percentage of MHC-IIhighCCR2high macrophage subset (DT-injured hearts day 4, with vs without Pirfenidone, p=0.36): no significant difference
percentage of MHC-IIhighCCR2low macrophage subset (DT-injured hearts day 4, with vs without Pirfenidone, p=0.43): no significant difference
subset of CD19+CD11b− cells (DT-injury day 4, Pirfenidone vs control): significant (p=0.04) reduction
CD19+ cells/mg of tissue (DT-injury day 4, Pirfenidone vs control, p<0.01): significantly fewer
number of myocardial CD19+CD86high B lymphocytes (DT-injury model, day 4): significant (p<0.04) decrease
survival (Pirfenidone treated vs untreated DT-treated littermate controls, p=0.03): significantly improved
extent of Evans Blue dye uptake (day 4 post DT, Pirfenidone chow vs normal chow, p=0.26): no significant differences
serum troponin levels (day 4 post DT, Pirfenidone chow vs normal chow, p=0.34): no significant differences
prevalence of cardiac myocyte apoptosis (day 4 post DT, Pirfenidone chow vs normal chow, p=0.39): no significant differences
reduction in the percentage of CD19+ myocardial B lymphocytes (following DT-injury day 4, vs normal chow, p=0.02): > 3 fold
